From the supplement of paper PMC12217912
This is one part of the list. The full chains were built here from the parent and the listed change. Inactive controls read about 0.05.

B1: TEV protease; numbered along this chain (parent)
chain: MGESLFKGPRDYNPISSSICHLTNESDGHTTSLYGIGFGPFIITNKHLFRRNNGTLVVQSLHGVFKVKDTTTLQQHLVDGRDMIIIRMPKDFPPFPQKLKFREPQREERICLVTTNFQTKSMSSMVSDTSCTFPSGDGIFWKHWIQTKDGQCGSPLVSTRDGFIVGIHSASNFTNTNNYFTSVPKNFMELLTNQEAQQWVSGWRLNADSVLWGGHKVFMVKPEEPFQPVKEATQL

Variants of: B1
Assay: raw area under fraction-flipped curve 0-4 h after induction (AUC4h, not background-subtracted), DNA-recorder readout of cleavage of the substrate (dimensionless); higher = more cleavage of the substrate by the protease variant
Details: temperature: 34 °C; time window: 0-4 h after rhamnose induction
Description: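 In vivo DNA recorder in E. coli TOP10(DE3) ΔrhaA at 34 °C. Each TEVp single-site mutant (parent TEVp 0) is paired with a single-site variant of the 7-mer TEVs (canonical ENLYFQ|S). The substrate sits between flexible linkers in a Bxb1-sfGFP-TEVs-SsrA fusion, so cleavage stabilises Bxb1 and speeds flipping of a recombination array, read by NGS. The value is the raw area under the fraction-flipped curve over 0-4 h after rhamnose induction (AUC4h), with ≥20 reads per time point. It is not background-subtracted; inactive controls average about 0.047.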
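Further: Bxb1 expression induced with 0.2% (w/v) L-rhamnose at OD600 near 0.5, cultures sampled hourly, flipped fraction per protease–substrate barcode pair counted by paired-end Illumina sequencing.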

Variant | area with substrate ENLYFQA | area with substrate ENLYFQC | area with substrate ENLYFQI | area with substrate ENLYFQK | area with substrate ENLYFQL | area with substrate ENLYFQN | area with substrate ENLYFQP | area with substrate ENLYFQQ | area with substrate ENLYFQR | area with substrate ENLYFQS | area with substrate ENLYFQT | area with substrate ENLYFQY | area with substrate ENLYFQD | area with substrate ENLYFQM | area with substrate ENLYFQE | area with substrate ENLYFQF | area with substrate ENLYFQH | area with substrate ENLYFQV | area with substrate ENLYFQW | area with substrate ENLYFQG
MGESLFKGPRDYNPISSSICHLTNESDGHTTSLYGIGFGPFIITNKHLFRRNNGTLVVQSLHGVFKVKDTTTLQQHLVDGRDMIIIRMPKDFPPFPQKLKFREPQREERICLVTTNFQTKSMSSMVSDTSCTFPSGDGIFWKHWIQTKDGQCGSPLVSTRDGFIVGIHSASNFTNTNNYFTSVPKNFMELLTNQEAQQWVSGWRLNADSVLWGKHKVFMVKPEEPFQPVKEATQL [G214K] | 0.0655 | 0.0943 | 0.0604 | 0.0723 | 0.0498 | 0.0603 | 0.0451 | 0.0699 | 0.0687 | 0.0855 | 0.0617 | 0.077 |  |  |  |  |  |  |  | 
MGESLFKGPRDYNPISSSICHLTNESDGHTTSLYGIGFGPFIITNKHLFRRNNGTLVVQSLHGVFKVKDTTTLQQHLVDGRDMIIIRMPKDFPPFPQKLKFREPQREERICLVMTNFQTKSMSSMVSDTSCTFPSGDGIFWKHWIQTKDGQCGSPLVSTRDGFIVGIHSASNFTNTNNYFTSVPKNFMELLTNQEAQQWVSGWRLNADSVLWGGHKVFMVKPEEPFQPVKEATQL [T114M] | 0.105 |  |  | 0.0682 | 0.0658 | 0.0663 | 0.0592 | 0.0957 | 0.0703 | 0.101 |  | 0.076 | 0.0761 | 0.0841 |  |  |  |  |  | 
MGESLFKGPRDYNPISSSICHLTNESDGHTTSLYGIGFGPFWITNKHLFRRNNGTLVVQSLHGVFKVKDTTTLQQHLVDGRDMIIIRMPKDFPPFPQKLKFREPQREERICLVTTNFQTKSMSSMVSDTSCTFPSGDGIFWKHWIQTKDGQCGSPLVSTRDGFIVGIHSASNFTNTNNYFTSVPKNFMELLTNQEAQQWVSGWRLNADSVLWGGHKVFMVKPEEPFQPVKEATQL [I42W] | 0.0513 | 0.0747 | 0.0458 | 0.0475 | 0.0587 | 0.0657 | 0.0389 | 0.0497 | 0.0499 | 0.0768 | 0.0532 | 0.0582 | 0.0588 |  | 0.0399 | 0.105 | 0.0811 | 0.0483 | 0.0524 | 
MGESLFKGPRDYNPISSSICHLTNESDGHTTSLYGIGFGPFIITNKHLFRRNNGTLVVQSLHGVFKVKDTTTLQQHLVDGRDMIIIRMPKDFPPFPQKLKFREPQREERICLVTTNFQTKSMSSMVSDTSCTFPSGDGIFWKHWIQTKDGQCGSPLVSTRDGFIVGIHSASNFTNLNNYFTSVPKNFMELLTNQEAQQWVSGWRLNADSVLWGGHKVFMVKPEEPFQPVKEATQL [T176L] | 0.0688 | 0.0493 | 0.0289 | 0.0738 | 0.0616 | 0.0698 |  | 0.0598 | 0.0491 | 0.0731 | 0.0501 | 0.0635 |  | 0.0633 |  |  | 0.0718 | 0.0657 | 0.095 | 0.0667
MGESLFKGPRDYNPISSSICHLTNESDGHTTSLYGIGFSPFIITNKHLFRRNNGTLVVQSLHGVFKVKDTTTLQQHLVDGRDMIIIRMPKDFPPFPQKLKFREPQREERICLVTTNFQTKSMSSMVSDTSCTFPSGDGIFWKHWIQTKDGQCGSPLVSTRDGFIVGIHSASNFTNTNNYFTSVPKNFMELLTNQEAQQWVSGWRLNADSVLWGGHKVFMVKPEEPFQPVKEATQL [G39S] | 0.0416 | 0.0419 | 0.0379 | 0.0422 | 0.0422 | 0.042 |  |  | 0.0382 | 0.0467 | 0.0365 | 0.045 | 0.0512 | 0.0478 |  | 0.0538 | 0.0412 |  | 0.0425 | 0.0484
MGEVLFKGPRDYNPISSSICHLTNESDGHTTSLYGIGFGPFIITNKHLFRRNNGTLVVQSLHGVFKVKDTTTLQQHLVDGRDMIIIRMPKDFPPFPQKLKFREPQREERICLVTTNFQTKSMSSMVSDTSCTFPSGDGIFWKHWIQTKDGQCGSPLVSTRDGFIVGIHSASNFTNTNNYFTSVPKNFMELLTNQEAQQWVSGWRLNADSVLWGGHKVFMVKPEEPFQPVKEATQL [S4V] | 0.125 | 0.141 |  | 0.0653 | 0.0709 | 0.112 | 0.0507 | 0.0834 | 0.0531 | 0.13 | 0.0694 | 0.101 | 0.111 | 0.102 |  |  | 0.0998 |  | 0.0883 | 0.134
MGESLFKGPRDYNPISSSICHLTNESDGHTTSLYGIGFGPFIITNKHLFRRNNGTLVVQFLHGVFKVKDTTTLQQHLVDGRDMIIIRMPKDFPPFPQKLKFREPQREERICLVTTNFQTKSMSSMVSDTSCTFPSGDGIFWKHWIQTKDGQCGSPLVSTRDGFIVGIHSASNFTNTNNYFTSVPKNFMELLTNQEAQQWVSGWRLNADSVLWGGHKVFMVKPEEPFQPVKEATQL [S60F] | 0.0882 | 0.128 |  | 0.0531 | 0.0639 |  |  |  |  | 0.102 | 0.0952 | 0.114 |  | 0.0796 |  |  | 0.0738 | 0.0637 | 0.0728 | 0.108
MGESLFKGPRDYNPISSSICHLTNESDGHTTSLYGIRFGPFIITNKHLFRRNNGTLVVQSLHGVFKVKDTTTLQQHLVDGRDMIIIRMPKDFPPFPQKLKFREPQREERICLVTTNFQTKSMSSMVSDTSCTFPSGDGIFWKHWIQTKDGQCGSPLVSTRDGFIVGIHSASNFTNTNNYFTSVPKNFMELLTNQEAQQWVSGWRLNADSVLWGGHKVFMVKPEEPFQPVKEATQL [G37R] | 0.0573 |  |  | 0.0702 |  | 0.052 |  |  | 0.0556 | 0.0755 | 0.0639 | 0.0579 | 0.0744 | 0.058 |  | 0.0706 | 0.0712 |  |  | 
MGESLFKGPRDYNPISSSIEHLTNESDGHTTSLYGIGFGPFIITNKHLFRRNNGTLVVQSLHGVFKVKDTTTLQQHLVDGRDMIIIRMPKDFPPFPQKLKFREPQREERICLVTTNFQTKSMSSMVSDTSCTFPSGDGIFWKHWIQTKDGQCGSPLVSTRDGFIVGIHSASNFTNTNNYFTSVPKNFMELLTNQEAQQWVSGWRLNADSVLWGGHKVFMVKPEEPFQPVKEATQL [C20E] | 0.0349 | 0.0394 | 0.0396 | 0.0513 | 0.0462 | 0.0422 | 0.0448 | 0.0443 | 0.0355 | 0.0478 | 0.0558 | 0.0529 |  | 0.0428 |  | 0.0581 | 0.045 | 0.035 | 0.0453 | 0.0473
